In the antibiotic and cytotoxicity screens of Wong et al. (2023):
This is one part of the list.

How the values were obtained:
HSkMC = human skeletal muscle cells; experiment: cytotoxicity call (relative viability < 0.9); details: 10 µM
HepG2 = experiment: cytotoxicity call (relative viability < 0.9); details: 10 µM
S. aureus RN4220 = experiment: growth inhibition call (relative growth <= 0.2); details: 50 µM

S=C(c1cccs1)N1CCCC1
inactive: cytotoxicity call (HSkMC) | cytotoxicity call (HepG2) | growth inhibition call (S. aureus RN4220)

COCC(=O)N(C)C[C@@H]1Oc2cc(C#Cc3ccccc3)ccc2S(=O)(=O)N([C@H](C)CO)C[C@H]1C
inactive: cytotoxicity call (HSkMC) | cytotoxicity call (HepG2) | growth inhibition call (S. aureus RN4220)

COc1ccc(NC(=O)N(C)C[C@H]2OCCCC[C@H](C)Oc3ccc(NC(=O)NC(C)C)cc3C(=O)N([C@@H](C)CO)C[C@@H]2C)cc1
inactive: cytotoxicity call (HSkMC) | cytotoxicity call (HepG2) | growth inhibition call (S. aureus RN4220)

C[C@H](O)C#Cc1ccc2c(c1)O[C@@H](CN(C)C(=O)Cc1ccccn1)[C@H](C)CN([C@@H](C)CO)S2(=O)=O
inactive: cytotoxicity call (HSkMC) | cytotoxicity call (HepG2) | growth inhibition call (S. aureus RN4220)

C[C@@H]1CCCCO[C@@H](CN(C)Cc2ccccc2)[C@@H](C)CN([C@@H](C)CO)C(=O)c2cc(NC(=O)Nc3ccccc3)ccc2O1
inactive: cytotoxicity call (HSkMC) | cytotoxicity call (HepG2) | growth inhibition call (S. aureus RN4220)

CO[C@H]1CN(C)C(=O)c2ccc(NC(=O)C3CC3)cc2OC[C@H](C)N(C(=O)C2CCOCC2)C[C@@H]1C
inactive: cytotoxicity call (HSkMC) | cytotoxicity call (HepG2) | growth inhibition call (S. aureus RN4220)

C[C@H](CO)N1C[C@H](C)[C@H](CN(C)C(=O)CCCN(C)C)OCCCC[C@H](C)Oc2ccc(NC(=O)Nc3cccc4ccccc34)cc2C1=O
inactive: cytotoxicity call (HSkMC) | cytotoxicity call (HepG2) | growth inhibition call (S. aureus RN4220)

COCC#Cc1cnc2c(c1)C(=O)N([C@@H](C)CO)C[C@@H](C)[C@H](CN(C)C(C)=O)O2
inactive: cytotoxicity call (HSkMC) | cytotoxicity call (HepG2) | growth inhibition call (S. aureus RN4220)

C[C@H]1CCCCO[C@@H](CN(C)C(=O)NC2CCCCC2)[C@@H](C)CN([C@@H](C)CO)C(=O)c2cc(NC(=O)Nc3ccccc3)ccc2O1
inactive: cytotoxicity call (HSkMC) | cytotoxicity call (HepG2) | growth inhibition call (S. aureus RN4220)
